Laboratory results from publication PMC6794377.
These are yes or no findings as the source states them, for the method shown. For some assays here: Binding seen in cells or lysates may run through a third protein. Some binding calls cover weakened binding; strength is not graded here. For some assays here: Sequences can lack the tags named with a protein. Values belong to the binder of their own block, whether it stands above or below them.

What was measured:
[1] = target: T1, hThrRS-L-His6 expressed in E. coli (human) (UniProt A2RTX5); assay: pull-down; hThrRS-L-His6 co-expressed with the partner from pRSFDuet1 in E. coli; Ni-NTA affinity chromatography; western blotting
T1 sequence: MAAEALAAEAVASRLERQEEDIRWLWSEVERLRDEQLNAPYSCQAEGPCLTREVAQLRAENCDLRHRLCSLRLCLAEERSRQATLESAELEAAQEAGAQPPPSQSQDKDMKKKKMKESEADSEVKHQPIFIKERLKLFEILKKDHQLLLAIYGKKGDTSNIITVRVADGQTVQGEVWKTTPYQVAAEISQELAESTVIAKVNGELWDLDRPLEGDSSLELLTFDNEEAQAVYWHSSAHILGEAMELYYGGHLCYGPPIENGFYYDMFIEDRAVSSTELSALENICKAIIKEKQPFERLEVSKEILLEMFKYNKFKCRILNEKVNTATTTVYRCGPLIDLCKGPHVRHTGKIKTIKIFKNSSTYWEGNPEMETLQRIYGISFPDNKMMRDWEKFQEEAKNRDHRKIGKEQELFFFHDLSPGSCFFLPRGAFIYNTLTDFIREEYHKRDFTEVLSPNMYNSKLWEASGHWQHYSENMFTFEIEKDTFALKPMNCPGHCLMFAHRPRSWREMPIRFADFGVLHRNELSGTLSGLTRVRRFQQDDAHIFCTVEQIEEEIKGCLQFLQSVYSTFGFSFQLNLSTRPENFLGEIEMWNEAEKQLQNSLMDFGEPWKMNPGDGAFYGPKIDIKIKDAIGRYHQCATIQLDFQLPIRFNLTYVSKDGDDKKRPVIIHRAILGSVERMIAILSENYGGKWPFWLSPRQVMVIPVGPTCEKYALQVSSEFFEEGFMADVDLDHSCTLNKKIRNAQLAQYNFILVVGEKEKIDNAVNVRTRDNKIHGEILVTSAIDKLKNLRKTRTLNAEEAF

[2] = target: T2, native p43 (AIMP1), endogenous in human cells (human (endogenous in HEK293T and HeLa)) (UniProt Q12904); assay: co-IP; transfected HEK293T lysate, IP with anti-p43 antibodies; western blotting
T2 sequence: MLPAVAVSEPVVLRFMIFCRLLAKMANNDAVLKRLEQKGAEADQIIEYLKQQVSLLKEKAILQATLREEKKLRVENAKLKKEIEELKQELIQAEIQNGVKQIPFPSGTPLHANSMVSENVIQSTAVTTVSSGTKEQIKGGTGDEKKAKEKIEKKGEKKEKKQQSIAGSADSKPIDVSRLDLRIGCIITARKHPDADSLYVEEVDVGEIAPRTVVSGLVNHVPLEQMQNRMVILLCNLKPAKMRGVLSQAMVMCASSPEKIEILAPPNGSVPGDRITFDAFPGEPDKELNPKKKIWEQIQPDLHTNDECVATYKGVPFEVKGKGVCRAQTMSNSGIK

[3] = target: T3, C-terminal FLAG-tagged human threonyl-tRNA synthetase-like protein (hThrRS-L-FLAG) (human) (UniProt A2RTX5); assay: co-IP; both proteins overexpressed with different tags in HEK293T; lysis buffer 50 mM Tris-HCl pH 7.5, 150 mM NaCl, 5 mM EDTA, 1% Triton X-100; antibody overnight, Dynabeads protein G, 4°C; western blotting
T3 sequence: T1 sequence

[4] = target: T4, native mouse ThrRS-L (mThrRS-L) (mouse (endogenous in muscle tissue and NIH/3T3)) (UniProt Q8BLY2); assay: SEC; mouse muscle tissue extract on Superose-6, 50 mM Tris-HCl pH 7.5, 50 mM NaCl, 1 mM PMSF, 1 mM DTT; fractions immunoblotted
T4 sequence: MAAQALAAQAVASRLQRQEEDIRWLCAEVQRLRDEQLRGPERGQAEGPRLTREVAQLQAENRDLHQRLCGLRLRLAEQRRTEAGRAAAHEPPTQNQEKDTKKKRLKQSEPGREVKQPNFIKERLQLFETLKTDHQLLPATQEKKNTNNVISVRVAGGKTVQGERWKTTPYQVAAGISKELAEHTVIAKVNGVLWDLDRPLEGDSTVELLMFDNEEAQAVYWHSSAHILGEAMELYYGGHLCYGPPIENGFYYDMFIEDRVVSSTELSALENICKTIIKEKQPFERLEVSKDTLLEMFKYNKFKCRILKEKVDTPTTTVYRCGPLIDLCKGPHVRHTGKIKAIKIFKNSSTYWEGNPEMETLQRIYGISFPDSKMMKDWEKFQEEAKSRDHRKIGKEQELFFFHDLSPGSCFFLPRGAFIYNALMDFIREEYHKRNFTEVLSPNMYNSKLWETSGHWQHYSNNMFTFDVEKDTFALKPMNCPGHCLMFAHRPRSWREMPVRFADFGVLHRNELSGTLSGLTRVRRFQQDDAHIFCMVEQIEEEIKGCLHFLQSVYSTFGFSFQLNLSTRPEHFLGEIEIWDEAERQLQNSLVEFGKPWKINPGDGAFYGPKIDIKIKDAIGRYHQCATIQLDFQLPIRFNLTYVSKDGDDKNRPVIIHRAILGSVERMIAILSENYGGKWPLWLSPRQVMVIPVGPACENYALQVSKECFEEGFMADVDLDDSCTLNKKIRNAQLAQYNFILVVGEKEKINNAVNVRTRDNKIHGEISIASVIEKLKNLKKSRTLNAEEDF

B1: p43 overexpressed in E. coli (protein, UniProt Q12904-2 1-336)
chain: T2 sequence
- binding [1]: binds

B4: mouse ArgRS, endogenous in muscle tissue (enzyme, UniProt Q9D0I9 1-660)
chain: MDGLVAQCSARLLQQEREIKALTAEIDRLKNCGCLEASPSLEQLREENLKLKYRLNILRRSLQEERRKPTKNMININSRLQEVFGCAIRAAYPDLENPPLIVTPSQQPKFGDYQCNSAMGISQMLKAKEQKVSPREIAENITKHLPNNKYIDKVEIAGPGFINVHLRKDFVSEQLTSLLVNGVQLPVLGDKEKVIVDFSSPNIAKEMHVGHLRSTIIGESMSRLFEFAGYDVLRLNHVGDWGTQFGMLIAHLQDKFPDYLTVSPPIGDLQAFYKESKKRFDADEEFKKRAYQCVVLLQSKNPDIMKAWNLICDVSREEFKKIYDALDITLIERGESFYQDRMKDIVKEFEDKGFVQVDDGRKIVFVPGCSVPLTIVKSDGGYTYDTSDLAAIKQRLFEEKANKIIYVVDNGQAIHFQTIFAAAQMIGWYDPKVTLVTHVGFGVVLGEDKKKFKTRSGETVRLMDLLEEGLKRSMDKLKEKERDKVLTEEELKAAQTSVAYGCIKYADLSHNRLNDYIFSFDKMLDDRGNTAAYLLYAFTRIRSIARLANIDEAMLQRAARETKIILDHEKEWKLGRCILRFPEILQKILDDLFLHTLCDYIYELATTFTEFYDSCYCVEKDRQTGKVLKVNMWRMLLCEAVAAVMAKGFDILGIKPVQRM
- binding [4]: binds

The remaining lines, values ahead:

- binding [2]: binds
- binding [3]: binds
B2: C-terminal FLAG-tagged human threonyl-tRNA synthetase-like protein (hThrRS-L-FLAG) (enzyme, UniProt A2RTX5 1-802)
chain: T1 sequence

- binding [1]: binds
B3: ArgRS overexpressed in E. coli (enzyme, UniProt P54136 1-660)
chain: MDVLVSECSARLLQQEEEIKSLTAEIDRLKNCGCLGASPNLEQLQEENLKLKYRLNILRKSLQAERNKPTKNMINIISRLQEVFGHAIKAAYPDLENPPLLVTPSQQAKFGDYQCNSAMGISQMLKTKEQKVNPREIAENITKHLPDNECIEKVEIAGPGFINVHLRKDFVSEQLTSLLVNGVQLPALGENKKVIVDFSSPNIAKEMHVGHLRSTIIGESISRLFEFAGYDVLRLNHVGDWGTQFGMLIAHLQDKFPDYLTVSPPIGDLQVFYKESKKRFDTEEEFKKRAYQCVVLLQGKNPDITKAWKLICDVSRQELNKIYDALDVSLIERGESFYQDRMNDIVKEFEDRGFVQVDDGRKIVFVPGCSIPLTIVKSDGGYTYDTSDLAAIKQRLFEEKADMIIYVVDNGQSVHFQTIFAAAQMIGWYDPKVTRVFHAGFGVVLGEDKKKFKTRSGETVRLMDLLGEGLKRSMDKLKEKERDKVLTAEELNAAQTSVAYGCIKYADLSHNRLNDYIFSFDKMLDDRGNTAAYLLYAFTRIRSIARLANIDEEMLQKAARETKILLDHEKEWKLGRCILRFPEILQKILDDLFLHTLCDYIYELATAFTEFYDSCYCVEKDRQTGKILKVNMWRMLLCEAVAAVMAKGFDILGIKPVQRM
